Laboratory results from ChEMBL document CHEMBL5303300, “EUbOPEN Chemogenomics Library - Multiplex” (2023).

Legend:
Type in all cases: toxicity, cell-based
U2OS = experiment: Multiplex assay against U2OS; details: human, number of replicates 2
In short: (§1)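 With compound added, live cells were imaged on a CQ1 microscope at 37°C and 5% CO2; staining with Hoechst33342, BioTracker Green Microtubule Cytoskeleton Dye, MitoTracker Red and Annexin V Alexa Fluor 680 had been done at seeding. The CellPathfinder machine-learning gating scheme split cells into Hoechst high-intensity objects or normal cells, normal cells into healthy, pyknosed or fragmented nuclei, and pyknosed cells into mitotic or apoptotic. The tubulin, mitochondrial-mass and membrane-permeability phenotypes are per cents of healthy-nucleus cells.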

Fibroblast = experiment: Multiplex assay against human fibroblast; details: number of replicates 2; for Population Tubulin-Different-Phenotype (%): 1 µM, compound concentration 1 uM; for Population Mitotic Cells (%): 10 µM, compound concentration 10 uM; in short: as §1
HEK-293T = experiment: Multiplex assay against HEK293T; details: human, number of replicates 2; in short: as §1
[1] = 12 h, 1 µM, compound concentration 1 uM
[2] = 12 h, 10 µM, compound concentration 10 uM
[3] = 24 h, 10 µM, compound concentration 10 uM
[4] = 48 h, 1 µM, compound concentration 1 uM
[5] = 48 h, 10 µM, compound concentration 10 uM
[6] = 24 h, 1 µM, compound concentration 1 uM

SMILES	Population Fragmented Nuclei (%) (U2OS; [2])	Population Fragmented Nuclei (%) (U2OS; [3])	Population Fragmented Nuclei (%) (U2OS; [1])	Total Cell Count (U2OS; [1])	Total Cell Count (U2OS; [2])	Population Fragmented Nuclei (%) (U2OS; [6])	Total Cell Count (U2OS; [6])	Total Cell Count (U2OS; [3])	Population Fragmented Nuclei (%) (U2OS; [4])	Total Cell Count (U2OS; [4])	Total Cell Count (U2OS; [5])	Population Mitotic Cells (%) (Fibroblast; 48 h)	Population Fragmented Nuclei (%) (U2OS; [5])	other results
CN[C@@H]1CC[C@@H](c2ccc(Cl)c(Cl)c2)c2ccccc21.Cl	35% and 9%	32% and 8%												Population Mitochondria Different-Phenotype (%) (U2OS; [1]): 14% and 3%; Population Healthy Nuclei (%) (U2OS; [3]): 17% and 56%; Population Mitotic Cells (%) (U2OS; [4]): 14% and 47%; Population Healthy Nuclei (%) (U2OS; [5]): 11% and 45%; Population Tubulin-Different-Phenotype (%) (Fibroblast; 48 h): 29% and 9%
CCc1cnn2c(NCc3ccc[n+]([O-])c3)cc(N3CCCCC3CCO)nc12 (stereo not drawn)			42% and 10%	35 and 124	45 and 232	48% and 15%	25 and 128	49 and 219	46% and 9%	32 and 120	209 and 52			Population Mitotic Cells (%) (U2OS; [1]): 41% and 8%; Population Membrane Permeable-Phenotype (%) (U2OS; [2]): 38% and 4%; Population Mitochondria Different-Phenotype (%) (U2OS; [6]): 20% and 5%; Population Membrane Permeable-Phenotype (%) (U2OS; [5]): 56% and 16%; Population Mitotic Cells (%) (U2OS; [5]): 4% and 17%; Population Mitotic Cells (%) (HEK-293T; [2]): 47% and 13%
NCC1CCC(CNc2nc(NCc3ccccc3OC(F)(F)F)ncc2[N+](=O)[O-])CC1 (stereo not drawn)				51 and 273	41 and 239		59 and 365	35 and 245		78 and 644	33 and 256	10% and 33%		
CNC(=O)c1c(F)cccc1Nc1nc(Nc2cc3c(cc2OC)CCN3C(=O)CN(C)C)nc2[nH]ccc12	64% and 14%	64% and 12%	25% and 3%	51 and 173		18% and 3%	59 and 237	800 and 222	14% and 2%	77 and 338	809 and 193		64% and 17%	Population Membrane Permeable-Phenotype (%) (U2OS; [2]): 2% and 25%; Population Mitochondria Different-Phenotype (%) (U2OS; [2]): 2% and 32%; Population Pyknosed Nuclei (%) (U2OS; [2]): 1% and 50%; Population Membrane Permeable-Phenotype (%) (U2OS; [3]): 2% and 35%; Population Mitochondria Different-Phenotype (%) (U2OS; [3]): 3% and 54%; Population Pyknosed Nuclei (%) (U2OS; [3]): 2% and 63%; Population Healthy Nuclei (%) (U2OS; [5]): 32% and 10%; Population Membrane Permeable-Phenotype (%) (U2OS; [5]): 2% and 47%; Population Mitochondria Different-Phenotype (%) (U2OS; [5]): 1% and 47%; Population Pyknosed Nuclei (%) (U2OS; [5]): 2% and 71%; Population Tubulin-Different-Phenotype (%) (Fibroblast; 24 h): 4% and 17%; Population Mitotic Cells (%) (HEK-293T; [6]): 60% and 16%
N=C(N)NCCC[C@H](NC(=O)COCC(c1ccccc1)c1ccccc1)C(=O)O.O=C(O)C(F)(F)F			46% and 2%	30 and 207	30 and 199	25% and 1%	27 and 290	38 and 293	21% and 3%	41 and 664	65 and 606	38% and 5%		Population Mitotic Cells (%) (U2OS; [1]): 0% and 55%; Population Pyknosed Nuclei (%) (U2OS; [2]): 26% and 8%; Population Pyknosed Nuclei (%) (U2OS; [5]): 21% and 4%
Br.Cc1cccc(C2CN(C)CCc3c2cc(O)c(O)c3Cl)c1 (stereo not drawn)		2% and 25%	27% and 5%	47 and 275	221 and 21	2% and 13%	375 and 45	294 and 16	15% and 3%	59 and 789	30 and 429	55% and 0%	13% and 1%	Population Apoptotic (%) (U2OS; [2]): 58% and 0%
CC1(C)C(=O)N([C@H]2CCc3c(O)cccc32)c2nc(Nc3cccc(CN4CCCC4)c3)ncc21	32% and 8%	31% and 8%	51% and 7%	35 and 190	28 and 190	43% and 11%	32 and 201	29 and 180	50% and 13%	33 and 194	179 and 39		6% and 55%	Population Healthy Nuclei (%) (U2OS; [4]): 12% and 38%; Population Mitotic Cells (%) (U2OS; [5]): 2% and 18%; Population Mitotic Cells (%) (HEK-293T; [6]): 11% and 66%

For part of its entries the source gives two or more results. The other results are left out here. An entry can have further records. The values listed for one entry are repeated measurements across runs, samples, wells, individuals or studies.
